This passage reports TGI and GI50 results from PubChem BioAssay (NCI).

The structures appear in SMILES notation.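 Grown in 96-well plates, cells were treated for 48 hours with each compound at five concentrations. Insufficient inhibition: endpoint recorded as highest concentration tested. Abbreviation: GI50, concentration required for 50% inhibition of growth.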 For part of its entries the source gives two or more results. This is not the full list of results. An entry can have further records. A record mostly stands for its own series of concentrations, not given here; a value can be the end of its range.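 Definition used: TGI = concentration required for complete inhibition of growth.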

Test systems include A498 renal; EKVX NSCLC; NCI-H226 lung; OVCAR-4 ovarian; RXF 393 renal; SK-MEL-5 melanoma; SR leukemia.
Common to all, as to assay: growth of human tumour cells (NCI), 48 h

Consider `COc1ccc2c(c1)NC(=O)CN2c1nc(NC2CC2)nc2ccccc12`, for which the TGI in the assay on A498 renal was 8.22 nM and 10.6 µM; in the assay on RXF 393 renal it was 6.41 nM and 12.9 µM; in the assay with SK-MEL-5 melanoma, 3.01 nM and 1.08 µM; in the assay on SR leukemia, 1.29 nM and > 100 µM. Further, the GI50 in the assay with EKVX NSCLC is 2.1 nM and 81.8 nM; in the assay on NCI-H226 lung it was 4.56 nM and 1.33 µM; in the assay on OVCAR-4 ovarian, 2.23 nM and 920 nM.
